Experimental data reported in article PMC4336329 (PLoS ONE, 2015).
Out of some 310,000 compounds screened, about 14,000 (4.5%) showed an effect of 50% or more. Effects have a minus sign here. This is one part of the list.

Molecular target: human ether-à-go-go-related gene (hERG) potassium channel (human, UniProt Q12809)
Test: primary screen, population patch clamp on CHO cells stably expressing hERG
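Further: peak tail current of the secondary pulse compared with the same well before compound.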

Chain of human ether-à-go-go-related gene (hERG) potassium channel (Q12809 whole entry, looked up): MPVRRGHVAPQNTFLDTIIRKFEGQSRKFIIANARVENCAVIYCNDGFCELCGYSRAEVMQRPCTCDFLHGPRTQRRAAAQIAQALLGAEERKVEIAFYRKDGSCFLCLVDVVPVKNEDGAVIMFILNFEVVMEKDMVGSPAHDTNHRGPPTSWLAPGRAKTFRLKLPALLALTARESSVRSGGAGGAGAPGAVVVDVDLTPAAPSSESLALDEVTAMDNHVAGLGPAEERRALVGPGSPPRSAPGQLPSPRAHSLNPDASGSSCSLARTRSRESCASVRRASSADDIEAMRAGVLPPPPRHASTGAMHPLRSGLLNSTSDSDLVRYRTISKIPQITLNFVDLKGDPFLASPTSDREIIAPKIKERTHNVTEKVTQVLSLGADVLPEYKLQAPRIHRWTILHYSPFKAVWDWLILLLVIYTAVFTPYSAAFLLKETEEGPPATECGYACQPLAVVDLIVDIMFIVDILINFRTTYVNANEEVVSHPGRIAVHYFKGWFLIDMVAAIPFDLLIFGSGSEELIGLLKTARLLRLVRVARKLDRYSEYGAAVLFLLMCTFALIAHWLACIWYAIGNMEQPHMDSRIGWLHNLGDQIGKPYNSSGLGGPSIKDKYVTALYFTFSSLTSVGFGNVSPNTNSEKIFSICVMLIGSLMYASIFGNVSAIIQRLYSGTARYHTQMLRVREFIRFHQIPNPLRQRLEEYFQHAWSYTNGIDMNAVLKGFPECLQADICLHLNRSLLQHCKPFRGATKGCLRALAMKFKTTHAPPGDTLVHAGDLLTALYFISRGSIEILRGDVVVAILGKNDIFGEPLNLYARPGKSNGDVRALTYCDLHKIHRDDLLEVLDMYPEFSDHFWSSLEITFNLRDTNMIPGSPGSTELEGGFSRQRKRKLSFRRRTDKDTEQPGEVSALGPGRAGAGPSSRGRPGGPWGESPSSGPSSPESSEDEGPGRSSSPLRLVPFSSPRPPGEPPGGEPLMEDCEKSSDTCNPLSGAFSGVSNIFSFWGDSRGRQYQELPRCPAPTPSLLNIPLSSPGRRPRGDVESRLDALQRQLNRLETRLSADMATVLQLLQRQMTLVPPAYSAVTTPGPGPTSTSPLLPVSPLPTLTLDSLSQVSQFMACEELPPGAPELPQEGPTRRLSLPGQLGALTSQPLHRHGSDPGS

Point of comparison: `O=C(CN1C(=O)/C(=C/c2ccccc2)Sc2ccccc21)NCCCN1CCOCC1`, “hERG current change (%, negative = inhibition) at 10uM” value -42.8%. Against it:
- CCOC(=O)c1sc(N)c(C(=O)OC)c1C — higher, 5.27%
- Cc1ccccc1C(=O)c1c[nH]c(C(=O)NCCc2ccccn2)c1 — higher, -3.69%
- O=C(Nc1ccccc1Br)c1cccc2ccccc12 — higher, 1.37%
- Cc1cc(NS(=O)(=O)c2ccc(NC(=O)CSc3nc4sc(C)c(C)c4c(=O)[nH]3)cc2)no1 — higher, -4.03%
- c1ccc(SSc2ccccn2)nc1 — higher, 6.66%
- O=C(CC1SC(N2CCCCC2)=NC1=O)Nc1ccc(C(=O)NCCc2ccc(F)cc2)cc1 (stereo not drawn) — higher, -9.01%
- Cc1ccc(C2c3[nH]c4ccccc4c3C[C@H]3C(=O)N(c4ccccc4C(=O)N4CCC[C@@H]4C(=O)O)C(=O)N23)cc1 (stereo partly drawn) — higher, -0.654%
- CC(=O)c1cn(-c2ccc(Cl)cc2)c(=O)n(Cc2ccc(F)cc2)c1=O — higher, 1.04%
- Cc1ccc(S(=O)(=O)NCC(=O)N(CC(=O)NCC2CCCO2)Cc2ccccc2Cl)cc1 (stereo not drawn) — higher, -4.07%
- CCOC(=O)c1ccc(NC(=O)CSc2nc3c(c(=O)n2-c2ccccc2OC)SCC3)cc1 — higher, 10.2%
- C/C(=N\Nc1nc(C)c(C)s1)c1ccc([N+](=O)[O-])cc1 — higher, 14.9%
- CC(Oc1ccc(Cl)cc1Cl)C(=O)N(Cc1ccco1)C1CCS(=O)(=O)C1 (stereo not drawn) — higher, -25.6%
- CCNC(=O)NC(=O)CSc1ccc(S(=O)(=O)N2CCCCC2)cn1 — higher, 0.377%
- Cc1cc(C)c(S(=O)(=O)Nn2cnnc2)c(C)c1 — higher, 22%
- CCCCOc1ccc(/C=N/NC(=O)c2nnn(-c3nonc3N)c2CN2CCCCCC2)cc1 — higher, 5.06%
- COC(C(=O)Nc1ccc(Cl)cc1C)c1ccccc1 (stereo not drawn) — higher, -14.1%
- CC(C)NC(=O)COc1coc(CN2CCN(Cc3ccccc3)CC2)cc1=O — higher, 11.9%
- CCc1nc(NCCO)c(C#N)c2c1CCCC2 — higher, 13.4%
- O=c1cc(-c2ccccc2)nc2cc(-c3ccc(Br)cc3)[nH]n12 — higher, 21.1%
- O=C1NC(=O)[C@]2(Cc3ccccc3N3CCN(c4ccccc4)CC32)C(=O)N1c1ccccc1 (stereo partly drawn) — higher, -7.93%
- CSCC(=O)N1CCCC(CNC(=O)c2ccc(-c3ccccc3)cc2)C1 (stereo not drawn) — higher, -28.5%
- CCOC(=O)[C@@H]1[C@H]2COc3ccc(Br)cc3[C@H]2N2C(=O)N(c3ccc(Br)cc3)C(=O)[C@]12C — higher, 7.88%
- CCCCCn1c(NC2CCCCC2)nc2c1c(=O)[nH]c(=O)n2C — higher, -17.6%
- O=C(COC(=O)c1cccc2ccccc12)NCCCc1ccccc1 — higher, 0.562%
- Cc1ccc2cc(CCNC(=O)CCCc3ccccc3)c(=O)[nH]c2c1 — higher, 1.97%
- Cc1nnc(NC(=O)c2nc(S(=O)(=O)Cc3ccccc3)ncc2Cl)s1 — higher, 11.5%
- O=c1cnn(-c2ccccc2)c(-c2ccccc2)c1 — higher, 3.33%
- COC(=O)CCCC1=CC2=C(c3ccccc3)C(=O)C(C)(OC(=O)C3CCCC3)C(=O)C2=CN1CCN1CCOCC1 (stereo not drawn) — higher, -2.79%
- CCOC(=O)C1/C(=N\O)CC(C)(O)C(C(=O)OCC)C1c1ccc(N(C)C)cc1 (stereo not drawn) — higher, 16%
- O=C(COc1ccc(F)cc1)N(Cc1ccco1)C1CCS(=O)(=O)C1 (stereo not drawn) — higher, -28.4%
- COc1ccc(/C=C/C(=O)NCCc2ccc(OC)c(OC)c2)cc1 — higher, -10.1%
- CSc1cccc(NS(=O)(=O)c2ccc(F)cc2)c1 — higher, -8.72%
- Cc1ccccc1C(=O)NNC(=O)c1cccn1C — higher, 0.00628%
- CC(C)(C)c1ccc(Oc2ccc(NC(=O)C3CC=CCC3C(=O)O)cc2)cc1 (stereo not drawn) — higher, -3.95%
- CC(OC(=O)c1cn(-c2ccccc2)nc1-c1cccnc1)C(N)=O (stereo not drawn) — higher, -10.1%
- Cc1cc(NS(=O)(=O)c2ccc(NC(=O)N[C@H](C(=O)O)C(C)C)cc2)no1 — higher, 29.3%
- CCCCC1=CC2=C(c3ccco3)C(=O)C(C)(OC(=O)c3ccc(OC)cc3)C(=O)C2=CN1c1ccccc1 (stereo not drawn) — higher, 13.4%
- COC(=O)/C=c1/sc2n(c1=O)CCN=2 — higher, 6.33%
- CC(C)CCNC(=O)CCc1nnc(Cc2c[nH]c3ccccc23)o1 — higher, 12.6%
- c1cncc(-c2cnc3ccccc3c2)c1 — higher, 8.02%
- Cc1nc(-c2ccccc2)sc1C1(C)CC(c2ccc([N+](=O)[O-])cc2)=NO1 (stereo not drawn) — higher, 3.94%
- Cc1ccc(NS(=O)(=O)c2cc(Br)cnc2N)cc1C — higher, -27.3%
- COc1ccc(OC)c(CN2CCC(C(=O)N(C)CCc3ccc(OC)c(OC)c3)CC2)c1.O=C(O)C(=O)O — higher, -11.5%
- Cc1nc(NC(=O)c2cccc(Cl)c2)sc1C(=O)N1CCCCC1 — higher, 8.92%
- Cc1c(C(=O)Nc2ccccc2-c2ccccc2)cccc1[N+](=O)[O-] — higher, -30.4%
- COc1cccc(N2C(=O)CC(N3CCC(C(N)=O)(N4CCCCC4)CC3)C2=O)c1 (stereo not drawn) — higher, -2.64%
- CC(=O)CSc1nc2cc3c(cc2cc1C#N)OCCO3 — higher, 8.69%
- CC#CCN1c2ccccc2[C@]23C[C@@H](C(=O)OC)N(C(C)=O)C2=NC(C(=O)OC)=C(C(=O)OC)[C@H]13 — higher, -1.39%
- CCN(CC)S(=O)(=O)c1ccc2nc(CCl)[nH]c2c1 — higher, -16.7%
- O=C(NC1CCCC1)C1CCC(CNS(=O)(=O)c2cccs2)CC1 (stereo not drawn) — higher, -5.73%
- O=[N+]([O-])c1ccc(F)cc1F — higher, 15.4%
- O=C(COc1ccc(Cl)cc1)Nc1ccc(NC(=O)c2ccco2)cc1 — higher, 13.4%
- CC1Cc2ccccc2N1C(=O)COC(=O)c1cc(Br)ccc1O (stereo not drawn) — higher, 0.761%
